Data reported in article PMC4336329 (PLoS ONE, 2015).
The campaign covered roughly 310,000 compounds. About 2,200 (0.71%) showed an effect of 50% or more. The effect is printed as a negative number. The list shows a part of the results.

Each molecule was assayed against human ether-à-go-go-related gene (hERG) potassium channel (human, UniProt Q12809) (assay: primary screen, population patch clamp on CHO cells stably expressing hERG).
Chain of human ether-à-go-go-related gene (hERG) potassium channel (Q12809 whole entry, looked up): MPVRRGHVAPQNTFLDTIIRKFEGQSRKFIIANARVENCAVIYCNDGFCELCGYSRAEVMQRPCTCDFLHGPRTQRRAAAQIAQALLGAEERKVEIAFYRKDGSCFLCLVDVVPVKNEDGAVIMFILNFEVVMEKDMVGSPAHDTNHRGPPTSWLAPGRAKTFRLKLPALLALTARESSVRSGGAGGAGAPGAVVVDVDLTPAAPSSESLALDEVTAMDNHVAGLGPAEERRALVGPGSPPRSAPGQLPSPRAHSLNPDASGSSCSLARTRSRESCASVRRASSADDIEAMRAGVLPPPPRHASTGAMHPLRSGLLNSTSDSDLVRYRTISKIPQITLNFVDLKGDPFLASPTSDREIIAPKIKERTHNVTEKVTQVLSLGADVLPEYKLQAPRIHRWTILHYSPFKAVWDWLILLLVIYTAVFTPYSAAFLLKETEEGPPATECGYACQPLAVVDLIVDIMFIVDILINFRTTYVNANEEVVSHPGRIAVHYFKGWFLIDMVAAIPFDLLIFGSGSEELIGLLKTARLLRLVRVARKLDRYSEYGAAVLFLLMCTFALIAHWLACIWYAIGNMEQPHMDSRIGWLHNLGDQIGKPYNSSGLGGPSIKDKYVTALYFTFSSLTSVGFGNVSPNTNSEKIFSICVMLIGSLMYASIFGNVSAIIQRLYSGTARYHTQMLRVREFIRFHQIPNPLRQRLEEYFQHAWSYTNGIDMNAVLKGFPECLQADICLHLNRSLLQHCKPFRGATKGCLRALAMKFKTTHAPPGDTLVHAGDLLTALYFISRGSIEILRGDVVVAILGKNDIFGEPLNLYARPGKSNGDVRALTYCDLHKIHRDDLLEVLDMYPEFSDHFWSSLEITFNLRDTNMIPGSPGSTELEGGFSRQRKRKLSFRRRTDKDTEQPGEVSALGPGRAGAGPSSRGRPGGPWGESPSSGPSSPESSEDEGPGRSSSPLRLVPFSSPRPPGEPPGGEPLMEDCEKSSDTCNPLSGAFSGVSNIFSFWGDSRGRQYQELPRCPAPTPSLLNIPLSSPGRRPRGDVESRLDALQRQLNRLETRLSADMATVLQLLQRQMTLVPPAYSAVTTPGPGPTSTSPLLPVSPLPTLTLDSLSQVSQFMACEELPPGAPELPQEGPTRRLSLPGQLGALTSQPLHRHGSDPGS

SMILES | hERG current change (%, negative = inhibition) at 1uM [%]
O=C1CCC(=O)N(c2ccccc2)N1 | 13.9
NS(=O)(=O)c1ccc(CNC(=O)c2ccc(Cl)c(S(=O)(=O)NCc3ccccc3)c2)cc1 | 13.8
COc1ccc(/C=C(/NC(=O)/C=C/c2ccccc2)C(=O)N2CCOCC2)cc1 | -34.9
COc1ccccc1C(=O)Nc1ccnn1C1CCN(C(=O)C2CCOC2)CC1 (stereo not shown) | 4.19
Nc1nnc(SCc2c(F)cccc2Cl)s1 | 10.9
Cc1ccccc1CN(c1ccc(C(=O)NCc2cccnc2)cc1)S(C)(=O)=O | 14.1
O=C(NC(=O)N1CCCC1)c1csnn1 | 16.2
COc1ccc(CNC(=S)N/N=C/c2ccc(OC)c(OC)c2)cc1 | 2.4
O=S(=O)(Nc1cccc2ccccc12)c1cccc2nonc12 | 12
Cc1ccc2nc3c(cc2c1)CN(Cc1ccco1)C(=NCC1CCCO1)S3 (stereo not shown) | 5.19
C/C=C(/C)C(=O)Nc1cccc(C2=NOC3(C2)C[C@H](C(N)=O)N(C(=O)Cc2ccc([N+](=O)[O-])cc2)C3)c1 (stereo partly shown) | 4.52
Nc1nnc(SCC(=O)OCc2ccc(Cl)c(Cl)c2)s1 | 13.8
Fc1cccc(/C=N/Nc2nncc3ccccc23)c1 | 7.89
COCC(C)NC(=O)C(C)N1c2cccc3cccc(c23)S1(=O)=O (stereo not shown) | 14.7
CC(=O)Nc1cccc(NC(=O)C(C)N2c3cccc4cccc(c34)S2(=O)=O)c1 (stereo not shown) | 8.91
Cc1ccc(NC(=S)N(CCN(C)C)C(C)c2ccco2)cc1C (stereo not shown) | -0.396
COc1ccc(CCNC(=O)CCNS(=O)(=O)c2cccc3nsnc23)cc1OC | 11.2
COc1cc(C2N(c3ccccc3)CCN2c2ccccc2)ccc1OC(C)=O | 9.04
CCC(C)NC(=O)C1CCCN1S(=O)(=O)c1ccc(Cl)cc1 (stereo not shown) | 12.8
Clc1ccc(Cn2nnc(-c3ccc(N4CCOCC4)cc3)n2)cc1 | 12.9
COc1ccc(C[C@H]2NC[C@H](O)[C@H]2OC(C)=O)cc1 | 9.27
C=CCN(c1ccc(OC)cc1)S(=O)(=O)c1ccc(Cl)c(C(=O)OCC(=O)NC2CC2)c1 | 8.54

SMILES | hERG current change (%, negative = inhibition) at 1uM [%]
O=C(CSc1cn(CCNC(=O)c2cccs2)c2ccccc12)NC1CCCC1 | -9.09
Cc1ccc(C)c(S(=O)(=O)NCCC(=O)N2CCCC(C(N)=O)C2)c1 (stereo not shown) | 1.64
O=C1C(C=NCCN2CCOCC2)=C(O)c2ccccc21 | -0.268
CC(C)Oc1ccc(C(=O)OC(C)C(=O)Nc2nc(-c3cccc([N+](=O)[O-])c3)cs2)cc1 (stereo not shown) | 7.68
CCCCCCn1c(NCC)nc2c1c(=O)n(C)c(=O)n2C | 7.77
NNc1nc(Nc2ccccc2)nc(Nc2ccccc2)n1 | 12.6
CCCC(=O)NCCc1cc2c(C)ccc(C)c2[nH]c1=O | 10.2
CCCc1ccc(C(=O)N2CCN(c3ccccc3OCC)CC2)cc1 | -15.3
N/C(=N\OC(=O)C1CC1)c1ccc([N+](=O)[O-])s1 | 12
O=C(COc1cc2oc(=O)c3c(c2cc1Cl)CCC3)NCCCn1ccnc1 | 6.75
Cc1ccccc1-n1nnnc1SCc1ncc(-c2ccccc2)o1 | 10.5
CCCC(C)NC(=O)COC(=O)c1cc(Br)c(Br)s1 (stereo not shown) | 3.39
Cc1nc2sccn2c(=O)c1S(=O)(=O)NCC1CCN(Cc2ccccc2Cl)CC1 | 15
CC(C)C(NC(=O)c1ccc(C(C)(C)C)cc1)C(=O)OCC(=O)NC(=O)Cc1ccccc1 (stereo not shown) | 5.68
Cc1cc(NN)nc(NS(=O)(=O)c2ccc(Cl)cc2)n1 | 7.56
Cc1cccc2cc(/C=N/NC(=O)CN3CCOCC3)c(Cl)nc12 | 4.4
COc1ccc(S(=O)(=O)N2CCCOC2CNC(=O)C(=O)NCc2ccncc2)cc1 (stereo not shown) | 7.04
O=C(NC(Cc1ccccc1)C(=O)OCC(=O)N1CCc2ccccc21)c1ccco1 (stereo not shown) | 8.6
O=C(O)c1cccc(N/N=C/c2sc(N3CCOCC3)nc2-c2ccccc2)c1 | 4.07
CCS(=O)(=O)n1nc(-c2ccco2)nc1N | 18.2
Fc1cccc(C2NCCc3[nH]cnc32)c1 (stereo not shown) | 10.6
O=[N+]([O-])c1cccc(/C=N/n2c(COc3ccccc3)n[nH]c2=S)c1 | -7.78

SMILES | hERG current change (%, negative = inhibition) at 1uM [%]
Cc1ccc(NC(=O)c2ccc(OCC3CCCO3)cc2)nc1 (stereo not shown) | 7.05
CC(=O)c1ccc(N2CCN(S(=O)(=O)c3ccc(-c4cc(C)no4)s3)CC2)cc1 | -4.62
O=C(CCC1CCCN(Cc2ccc3c(c2)CCO3)C1)NCc1ccc(F)c(F)c1 (stereo not shown) | -27.8
CC(=O)N1CCc2cc(S(=O)(=O)CCC(=O)Nc3cc(C)cc(C)c3)ccc21 | 8.33
Cc1cc(C)cc(N(CCC(=O)Nc2nnc(C)s2)S(=O)(=O)c2ccc(Cl)cc2)c1 | 11.3
CCN(CC)c1ccc(N2C(=NC(=O)C3CCCO3)SC3CS(=O)(=O)CC32)cc1 (stereo not shown) | 12.8
Oc1ccc(Br)cc1/C=N/n1cnc2ccccc21 | 12.6
CCOc1ccccc1NC(=O)c1cc(S(=O)(=O)N2CCN(CC)CC2)ccc1Cl | 3.07
Cc1ccc2c(c1)C(O)(CC(=O)c1cccc(-n3cccc3)c1)C(=O)N2 (stereo not shown) | 6.4
CN1CCN(Cc2cccc(Oc3ccc(Cl)cc3)c2)CC1 | 0.0483
O=C(NCCCN1CCCC1=O)c1ccc(NS(=O)(=O)c2ccccc2)cc1 | 5.59
Cn1nc(-c2ccccc2F)c2cc(C(=O)Nc3ccc4c(c3)OCCO4)sc21 | 8.3
Cc1cccc(N2C(N)=NC(N)=NC23CCCCC3)c1.Cl | 2.48
CC1(C)NC(=O)[C@H]2CCCN21 | 15.6
CCC(=Nc1ccccc1NC(C)=O)c1c(O)n(C)c(=O)n(C)c1=O | 2.93
Cc1ccc(S(=O)(=O)N2CCN(C(=O)CC(C)n3nc(C)c(Cl)c3C)CC2)cc1C (stereo not shown) | 22.1
CCc1nnc(NC(=O)CSc2ncnc3c2oc2ccccc23)s1 | 9.59
COC(=O)c1ccc(/C=N/n2c(C)nc3ccccc3c2=O)cc1 | 9.05
CC(C)C[C@H](N)c1nnc(S(=O)(=O)Cc2ccc(F)cc2)o1.Cl | 3.47
COc1ccc(NC(=O)c2cc(-c3ccc4c(c3)OCO4)on2)cc1OC | -0.461
CCCNC(=O)CCc1c(C)nc2nc(C)nn2c1C | 14
COc1cc2c(cc1OC)C1=NC(=O)CN1C(SCc1ccc(C)cc1)=N2 | 14.3

SMILES | hERG current change (%, negative = inhibition) at 1uM [%]
CCOc1ccc(-c2cc3nc(C4CCN(C(=O)OC(C)(C)C)CC4)c(C(=O)O)cn3n2)cc1 | 8.49
O=C(Cc1cccc(C(F)(F)F)c1)NCc1ccc(Cl)cc1 | -6.63
Cc1cc(C)n(CCCNC(=O)CN(C)S(=O)(=O)c2ccc(Cl)cc2)n1 | 10
CCOc1ccc(NS(=O)(=O)c2ccc(C)c(C(=O)NCCCn3ccnc3)c2)cc1 | 24.1
CC(C)(C)NC(=S)NCCc1ccccc1 | 13.4
COC(=O)CCCCNC(=O)Nc1ccccc1 | 4
O=[N+]([O-])c1ccc(OCC2CC(c3ccccc3)=NO2)cc1 (stereo not shown) | 10.3
NC(=S)Nc1ccc(F)c(F)c1F | -1.98
COc1ccc(C2=NN(c3nc4ccccc4s3)C(=O)C2)cc1 | 2.46
C/C=C(/C)C(=O)Nc1cccc(C2=NOC3(C2)C[C@@H](C(N)=O)N(C(=O)C2(C)CC2)C3)c1 (stereo partly shown) | 14.5
O=C(CCN1C(=O)C2C3C=CC(C3)C2C1=O)N1CCN(c2cccc(Cl)c2)CC1 (stereo not shown) | -5.32
CCc1ccc(C(=O)COC(=O)CNC(=O)c2cccs2)cc1 | -1.09
CCOc1ccc(NS(=O)(=O)c2cc(C(=O)N(CC)CC(=O)NCc3cccs3)ccc2C)cc1 | 14.1
Cc1ccc(-c2nc3ccccc3s2)cc1NC(=S)NC(=O)c1cccc2ccccc12 | -3.79
COc1ccc(N2CCN(C3CCCN(C(=O)c4ccoc4)C3)CC2)cc1 (stereo not shown) | 14.9
Cc1ccc(CN2CCN(Cc3cc(=O)c4ccccc4[nH]3)CC2CCO)o1 (stereo not shown) | 1.41
Cc1cc(C)c(C(=O)OCC(=O)Nc2cccc(S(=O)(=O)N3CCCCC3)c2)c(C)c1 | 5.11
Cc1cc(=O)oc2c3c(cc(OCC(=O)N[C@@H](Cc4ccccc4)C(=O)O)c12)OC(C)(C)CC3 | 5.14
CCCOc1ccc(N2C(=O)CC(N3CCC(C(=O)OCC)CC3)C2=O)cc1 (stereo not shown) | 2.36
CCOC(=O)c1c(C)noc1-c1ccco1 | 13.8
Cc1c(C)n(CCc2ccccc2)c2ncnc(NCCCN(C)C)c12 | -15.3
O=C(O)CCc1ccc(-c2ccccc2)n1NC(=O)c1sc2ccccc2c1Cl | 5.29
